According to paper PMC4336329 (PLoS ONE, 2015):
The whole screen tested about 310,000 compounds, of which about 2,200 (0.71%) showed an effect of 50% or more. The effect is printed as a negative number. This is one part of the list.

molecular target: human ether-à-go-go-related gene (hERG) potassium channel (human, UniProt Q12809); test: primary screen, population patch clamp on CHO cells stably expressing hERG
Sequence (Q12809 whole entry, looked up): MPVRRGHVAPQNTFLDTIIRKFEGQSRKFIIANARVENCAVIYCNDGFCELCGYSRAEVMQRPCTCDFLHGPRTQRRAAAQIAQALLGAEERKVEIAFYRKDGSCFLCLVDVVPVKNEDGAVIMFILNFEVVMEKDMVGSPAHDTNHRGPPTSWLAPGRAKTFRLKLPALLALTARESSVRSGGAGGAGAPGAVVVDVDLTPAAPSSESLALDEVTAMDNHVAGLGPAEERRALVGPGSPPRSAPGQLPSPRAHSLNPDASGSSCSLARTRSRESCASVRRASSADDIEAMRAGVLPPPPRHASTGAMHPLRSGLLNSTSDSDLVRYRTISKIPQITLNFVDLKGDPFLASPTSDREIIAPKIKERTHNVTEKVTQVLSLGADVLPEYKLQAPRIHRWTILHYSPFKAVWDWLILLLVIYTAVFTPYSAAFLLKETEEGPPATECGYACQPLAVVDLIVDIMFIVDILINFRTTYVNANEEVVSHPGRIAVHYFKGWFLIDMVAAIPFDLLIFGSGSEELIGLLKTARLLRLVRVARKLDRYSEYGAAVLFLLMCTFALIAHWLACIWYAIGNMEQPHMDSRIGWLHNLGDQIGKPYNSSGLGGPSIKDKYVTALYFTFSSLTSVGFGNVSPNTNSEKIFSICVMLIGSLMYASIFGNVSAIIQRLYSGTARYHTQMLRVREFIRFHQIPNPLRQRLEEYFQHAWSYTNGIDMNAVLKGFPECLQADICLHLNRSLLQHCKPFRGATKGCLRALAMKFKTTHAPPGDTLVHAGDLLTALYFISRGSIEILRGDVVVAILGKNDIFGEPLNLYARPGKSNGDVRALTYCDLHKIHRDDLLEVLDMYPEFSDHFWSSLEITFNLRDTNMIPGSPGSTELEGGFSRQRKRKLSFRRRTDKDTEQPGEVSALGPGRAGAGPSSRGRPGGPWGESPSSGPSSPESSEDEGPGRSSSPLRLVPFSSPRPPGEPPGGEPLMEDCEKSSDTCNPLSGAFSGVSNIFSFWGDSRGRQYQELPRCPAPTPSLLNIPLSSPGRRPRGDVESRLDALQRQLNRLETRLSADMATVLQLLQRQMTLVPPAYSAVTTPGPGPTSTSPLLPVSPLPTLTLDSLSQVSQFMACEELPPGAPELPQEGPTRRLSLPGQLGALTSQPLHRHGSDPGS

Compound | hERG current change (%, negative = inhibition) at 1uM
Cc1nn(Cc2ccc(F)cc2)c2sc(C(=O)Nc3ccccc3N3CCOCC3)cc12 | 13.8%
CCC(c1nc2ccccc2c(=O)n1-c1nc2ccccc2s1)N1C(=O)c2ccccc2C1=O (stereo not shown) | 13.3%
Cc1ccc(C(=O)NCCNC(=O)CN2CCOCC2)cc1 | 12.5%
Cc1ccsc1/C=N/NC(=S)NCc1ccccc1 | 11.9%
CC(C)(C)c1n[nH]c(=S)n(N)c1=O | 12.5%
Cc1cc(S(=O)(=O)N2CCOCC2)ccc1OCC(=O)Nc1ccc(F)cc1 | -3.24%
CCn1c(CCn2ccnc2C)n[nH]c1=S | -2.25%
COc1cc(Nc2nnc(C)s2)c(Cl)cc1Cl | 10.5%
COc1ccc(NC2CCCN(C(=O)CCc3cccc(Cl)c3)C2)cc1 (stereo not shown) | 0.3%
O=C(O)c1cccc2c1/C(=N/O)c1ccccc1-2 | 17.3%
C[N+]1(C)C2CCC1CC(OC(=O)c1c[nH]c3ccccc13)C2.[I-] (stereo not shown) | 11.3%
CN(CC(=O)Nc1ccccc1C(F)(F)F)C(=O)c1ccccc1Sc1ccccc1C#N | 14.3%
CS(=O)(=O)c1ccc(NC(=O)c2ccccc2-n2cnnn2)cc1 | 11.3%
CCCOc1ccc(/C=N/Nc2cccc([N+](=O)[O-])c2)c(O)c1 | 11.8%
CC(C)c1nc(SCC(=O)NC2CCCC2)c2ccccc2n1 | 11%
CCc1ccc(/C=C2\SC(=S)N(CCCC(=O)Nc3ccccn3)C2=O)cc1 | 14.3%
COc1ccccc1NC=C1C(=O)OC2(CCCCC2)OC1=O | 1.94%
CC(C)c1ccc(NC(=O)N2CCCC2C(=O)Nc2ccc(-n3cnnn3)cc2)cc1 (stereo not shown) | -5.97%
CC1=CC2=C(OC1N(C)C)c1cccc3cccc(c13)C2=O (stereo not shown) | 1.64%
c1ccc(SSc2ccccc2)cc1 | 15.3%
Cc1cc(NC(=O)Nc2cccc(Cl)c2)n(-c2ccccn2)n1 | 13.5%
Cc1ccc2oc(C(=O)NCc3ncc(C)[nH]3)c(C)c2c1 | 9.29%

Compound | hERG current change (%, negative = inhibition) at 1uM
O=C(c1ccc(-c2ccccc2)c(F)c1)C1CCCN(C(=O)c2cncs2)C1 (stereo not shown) | 2.85%
O=C(CNC(=S)N(CCCN1CCOCC1)Cc1cccs1)N1CCCCCC1 | -6.64%
CN1CCN(C2=Cc3cc(Cl)ccc3Sc3cc(F)ccc32)CC1.CS(=O)(=O)O | 11.3%
COc1ccc(S(=O)(=O)N2CCCC(C(=O)NC3CCCCC3)C2)cc1 (stereo not shown) | 10.8%
Cc1cc(C(=O)NNc2ccccc2F)no1 | 19.1%
O=C(CN1C(=O)C2CC=CCC2C1=O)NCC(=O)Nc1ccc(F)c(F)c1 (stereo not shown) | 12.9%
O=C(NCCOc1ccccc1)C(=O)NCC1CCCO1 (stereo not shown) | -0.956%
Cc1nn(-c2ccccc2)c(C)c1/C=C/C(=O)OCC(=O)Nc1ncc(Cl)cc1Cl | 12.2%
CCOC(=O)C(Cc1ccccc1)NS(=O)(=O)c1ccc(NC(C)=O)cc1 (stereo not shown) | 23.9%
COc1ccc(C)cc1NC(=O)c1cc(S(=O)(=O)N2CCOCC2)cn1C | 9.92%
Cc1ccc2nc(NCc3ccccc3)[nH]c2c1 | 7.11%
COCCn1nnnc1CN1CCN2CCCC2C1.Cl (stereo not shown) | 9.2%
COCCn1c(=NC(=O)/C=C/c2ccccc2)sc2cc(NC(C)=O)ccc21 | -6.98%
Cc1nnc2n(-c3ccccc3)c(=O)c3c4c(sc3n12)CCCC4 | 6.27%
COc1ccc2[nH]c(C(=O)NCCCN3CCCC3=O)c(C)c2c1 | 3.5%
COCCOc1cc(NC(=O)CS(=O)CC(=O)N(C)C)c(Cl)cc1Cl (stereo not shown) | 10.8%
Cc1ccc(-n2nnnc2SCC(=O)c2c(N)n(C3CC3)c(=O)[nH]c2=O)c(C)c1 | -1.2%
COc1ccc(CNC(=O)C(C)Sc2nc3ccccc3c(=O)n2CCCN2CCOCC2)cc1 (stereo not shown) | -95%
Nc1nc(NCC2CCCO2)nc(Nc2cccc(Cl)c2)c1[N+](=O)[O-] (stereo not shown) | 6.56%
COc1ccc(C(CNC(=O)c2oc3ccccc3c2C)N2CCCC2)cc1 (stereo not shown) | 2.18%
COc1ccc(N2CCN(C(=O)COc3ccc4c(C)cc(=O)oc4c3C)CC2)cc1 | 26.2%
